In the supplement of paper PMC3334620:
Whole data set: some 33,000 sequences, median “E-score (-0.5 to 0.5)” near -0.041, cut for the highest 2% near 0.37. This is one part of the list.

target: T1, Ecm22 (UniProt Q05958); experiment: PBM E-score (8-mer binding enrichment) (E-score (-0.5 to 0.5)); higher = stronger / more preferred TF binding; most listed sequences are background and not binding sites; details: protein concentration: 200 nM; construct: GST-full length
T1 sequence: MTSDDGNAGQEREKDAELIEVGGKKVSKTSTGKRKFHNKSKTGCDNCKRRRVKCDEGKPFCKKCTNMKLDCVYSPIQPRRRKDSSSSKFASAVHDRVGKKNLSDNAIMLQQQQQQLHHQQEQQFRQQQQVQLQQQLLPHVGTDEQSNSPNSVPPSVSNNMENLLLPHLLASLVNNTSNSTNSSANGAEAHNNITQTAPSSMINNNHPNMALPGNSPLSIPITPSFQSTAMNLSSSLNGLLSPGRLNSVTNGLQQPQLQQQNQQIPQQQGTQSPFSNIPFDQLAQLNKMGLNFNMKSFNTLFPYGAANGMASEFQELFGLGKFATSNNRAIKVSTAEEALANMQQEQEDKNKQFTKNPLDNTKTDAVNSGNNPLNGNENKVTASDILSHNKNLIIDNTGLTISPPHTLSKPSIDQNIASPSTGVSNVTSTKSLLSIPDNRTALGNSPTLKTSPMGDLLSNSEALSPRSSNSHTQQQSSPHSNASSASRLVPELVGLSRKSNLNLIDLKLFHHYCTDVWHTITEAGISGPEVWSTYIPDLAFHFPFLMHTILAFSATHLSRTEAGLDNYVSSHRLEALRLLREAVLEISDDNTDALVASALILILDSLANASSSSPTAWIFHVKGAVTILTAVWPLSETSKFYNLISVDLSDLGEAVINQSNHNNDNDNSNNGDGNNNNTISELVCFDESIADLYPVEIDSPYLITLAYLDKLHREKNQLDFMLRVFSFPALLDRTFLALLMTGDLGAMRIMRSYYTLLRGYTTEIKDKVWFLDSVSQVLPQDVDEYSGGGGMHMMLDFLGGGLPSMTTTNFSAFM
In short: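 Using PURExpress in vitro transcription/translation, GST-tagged yeast transcription factors were made in full-length or DNA-binding-domain form. These were applied at about 100-200 nM to double-stranded universal all-10-mer Agilent arrays, and bound protein was detected with fluorescent anti-GST. Scans were normalised with masliner before the Universal PBM Analysis Suite assigned E-scores to ungapped eight-base words pooled with their reverse complements.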

Row | Sequence | PBM E-score
1 | TATTCGGA | 0.149
2 | GAACCGGA | 0.118
3 | TGGGCGAA | -0.0522
4 | CGACCGAC | 0.185
5 | CGCTGGGC | 0.0666
6 | ACAAATAA | 0.0538
7 | CCACTCGC | 0.184
8 | CAGTCGGG | 0.0609
9 | TACGCACA | 0.168
10 | GGACCTGA | -0.127
11 | AAAGCTAA | -0.102
12 | ATGCAGGG | -0.126
13 | CGATCGCA | 0.253
14 | AGGTCCGC | -0.238
15 | GATGTGGA | -0.0129
16 | GAATCCGA | 0.189
17 | AGGTGAAC | 0.0634
18 | ACCTAACT | -0.00792
19 | CTTCGTAC | 0.477
20 | ATCATTCC | 0.0822
21 | GACCCCCA | -0.228
22 | CCTCAACG | -0.166
23 | CTACAAAC | 0.0176
24 | AATCTCGC | 0.288
25 | CTAGCCAG | -0.283

Row | Sequence | PBM E-score
26 | AAGCACAA | -0.0884
27 | CAGCATTA | 0.0115
28 | GGCTATAC | 0.178
29 | AACTTTTG | -0.104
30 | AAGGAGAG | -0.279
31 | GCAATTAA | -0.126
32 | ACGTGATC | -0.0275
33 | ATGTTCGG | 0.0114
34 | CAAACATA | -0.11
35 | AGACCAAA | -0.168
36 | CTATACTA | 0.0227
37 | AACAGTTG | -0.248
38 | ACCCGCCT | 0.0416
39 | ATTAGCGC | 0.027
40 | AAGGACTC | -0.09
41 | AAACGTAG | 0.151
42 | AGTGAGGG | -0.195
43 | CGGAAACG | 0.269
44 | CTCCAGTC | -0.197
45 | ACCTTTTG | 0.00019
46 | ACGGCATA | 0.245
47 | ATCCACTC | 0.0823
48 | TCGAGCCA | -0.126
49 | GTGTCTGA | -0.122
50 | AGTGGCGA | -0.00564

Row | Sequence | PBM E-score
51 | GCAACATA | 0.0381
52 | CGGAAGCC | 0.0166
53 | GCGAAGAA | 0.162
54 | GTGTCCTA | -0.0163
55 | ATTCCACG | -0.133
56 | TGACACCA | -0.239
57 | GGCGGCAA | -0.151
58 | ATGGCCGA | -0.0391
59 | GCCTAAAC | 0.142
60 | CGGCCTGC | -0.21
61 | TCGGGTAA | 0.236
62 | AGCGCGTG | 0.101
63 | GCGGAGAC | 0.0787
64 | AGTAGTGC | -0.236
65 | AACCGCGA | -8e-05
66 | AGGGCGAC | -0.257
67 | GGGATGAC | -0.0444
68 | GAACATAA | 0.0481
69 | CGTCATAG | 0.00517
70 | CCAGCTGG | 0.202
71 | TCACCGCA | -0.15
72 | AGGCCCAC | -0.256
73 | AAGCCGAC | 0.00835
74 | AACTTGGA | -0.0614
75 | CCACCTCC | -0.353

Row | Sequence | PBM E-score
76 | ACTTCCGA | 0.0755
77 | ACCGTCAA | 0.0306
78 | GAATACGC | 0.152
79 | CGTTCAGC | 0.36
80 | ATTTGAGA | -0.0201
81 | ACGGCGTA | 0.198
82 | GTGTTCTA | 0.0698
83 | AAAAGTAT | -0.00263
84 | AAGGAACC | 0.0815
85 | AGAAGTGC | -0.0651
86 | AATCAACC | -0.113
87 | AGCAAGCT | -0.25
88 | CTAAGAGC | 0.0418
89 | AACCTCGA | -0.126
90 | ACTCACCA | -0.199
91 | ACGCTGAG | -0.0403
92 | AAGACCCC | -0.162
93 | AAAATACC | 0.0602
94 | CGAATCAC | 0.194
95 | TAATGGAA | -0.121
96 | CTTTTCTA | -0.128
97 | ACGATGAT | 0.326
98 | AGGTGGAT | -0.0473
99 | ATCAGTTA | 0.162
100 | TAGACTGA | -0.16

Row | Sequence | PBM E-score
101 | CTTCTAAA | -0.0244
102 | GTTCGGCA | -0.0392
103 | CGATCCAG | 0.0246
104 | ATAAAAAA | -0.101
105 | CGTGGCGA | 0.0345
106 | TCCGCACA | -0.0184
107 | CACTCCTA | -0.237
108 | GGGTACTA | 0.0757
109 | AACGTTAG | 0.0578
110 | CGGTTCAC | -0.119
111 | CTAAATTC | -0.0281
112 | GACTAAGA | -0.0206
113 | AAGCGGAT | 0.026
114 | AAGACGTA | 0.146
115 | ATGAGGTA | -0.0168
116 | AGGTGCCC | -0.11
117 | CAGGATAG | 0.101
118 | ATGAACAT | 0.0278
119 | CAAACTAG | -0.142
120 | AGAAAGAG | -0.24
121 | ATCTTGGC | -0.115
122 | GAACAGTC | 0.0856
123 | CCCGTTTC | 0.216
124 | ATCTTTCC | -0.129
125 | ATGTGTGA | -0.203

Row | Sequence | PBM E-score
126 | GATACGTA | 0.253
127 | AAGTAATC | -0.0689
128 | CCATGCCA | -0.205
129 | ATTCTCGC | 0.0862
130 | CAAGGTCA | -0.0865
131 | AGTGAAAG | -0.174
132 | AAGGGCGA | -0.102
133 | AGGAGCTG | -0.288
134 | ACAGGGCG | -0.00222
135 | CACACTCC | -0.172
136 | TCCAGGGA | -0.173
137 | ATCCCGTG | 0.137
138 | AACATATC | 0.165
139 | CGGGAGAC | -0.119
140 | GCTCGGGA | 0.179
141 | GGCATGGA | -0.107
142 | ATCCATTG | -0.159
143 | AGCGCCAG | -0.0152
144 | CTGAATGC | -0.172
145 | CCTGTCAA | 0.0138
146 | ACTCAGGC | -0.193
147 | GTTATGTA | -0.0598
148 | AGCACCCT | -0.189
149 | GCCCTGCA | -0.236
150 | CGGCTGTA | -0.0942

Row | Sequence | PBM E-score
151 | CTCCTGAA | -0.0638
152 | AAGATACC | -0.121
153 | AACCGAAG | 0.201
154 | AGACGTAA | -0.0943
155 | GGATAGAA | 0.0638
156 | CCTGCGAG | -0.0299
157 | GCTAGACA | -0.128
158 | ACAGGCTA | -0.127
159 | ACCGAGAT | 0.178
160 | TGATTAAA | 0.044
161 | ATTTTAAG | -0.0605
162 | AGGTAACG | 0.107
163 | AAGGGCGT | 0.027
164 | CATTTTCG | 0.105
165 | CACTCTCG | 0.174
166 | CGCCCAAG | -0.204
167 | TCGAATAA | 0.192
168 | CCAGACAC | -0.00807
169 | CTCGGTCC | 0.336
170 | CATTACCC | -0.22
171 | CGTGATAG | 0.007
172 | CGGTTACA | 0.114
173 | CTAAACTA | -0.229
174 | CATCGCCC | -0.0849
175 | CTGACCAG | -0.133

Row | Sequence | PBM E-score
176 | ATAGACGG | -0.0266
177 | AGCGAGAG | 0.236
178 | AGTAGAGG | -0.146
179 | GCCACGAC | 0.0782
180 | AGTTACGC | 0.071
181 | TAACTGTA | -0.0166
182 | ATTGGAAC | 0.0587
183 | AATGACCT | -0.159
184 | CCATGGAA | -0.178
185 | GTGTGGAA | 0.0185
186 | CTCTGTTA | -0.0575
187 | CTACATCA | -0.27
188 | AGGTGATG | -0.259
189 | GAAAGGAA | -0.0254
190 | TAGTATCA | 0.0903
191 | GCACTGTA | 0.101
192 | CTCTAATA | -0.211
193 | ACCTCGTG | 0.251
194 | AACAGCCA | -0.0145
195 | ACGACCGG | 0.23
196 | AAACTGAA | -0.0929
197 | AAGGGTTC | -0.134
198 | ACTTATTG | -0.192
199 | ATTATGTG | 0.0218
200 | ACTTCGCC | 0.0257

Row | Sequence | PBM E-score
201 | ATGTCGTC | 0.0394
202 | GGGCCTAA | -0.249
203 | AAGGATAC | -0.0638
204 | CGAGTTCA | 0.0788
205 | CCACGATA | 0.0166
206 | CCTTTACA | -0.184
207 | CATCCGTC | 0.0509
208 | CGACAATA | 0.22
209 | AGATTGCC | -0.29
210 | GTGATACA | -0.0214
211 | TCGCATAA | 0.388
212 | ATGCCTGA | -0.16
213 | ATTAGCCC | -0.239
214 | CTCCCAAG | -0.199
215 | GTCCTTCA | -0.233
216 | AATACAGT | -0.0328
217 | CTCACGTA | 0.0688
218 | GACCTGCA | -0.146
219 | ACATACAA | -0.121
